According to the RNAGym collection of RNA variant scans (doi:10.7554/elife.90254):
The source gives no read counts; variants with many changes may rest on few reads.

B1: OR4K15 (parent)
chain: GUUAACGGUCAUAGGCCAUGGAAACUAGGAGCACCAUUUCGCUGCCAGUGAAGAAAUGAACAAAGAAAAUCUGGGCCAGGCAGGCAUCAAAAGAAAUAGUCUUGCGCUCAACCAGAAAGUCUGUAAUCAUUUUAAGGGUA

Variants of: B1
Assay: self-cleavage, relative activity (ratio to wild type); higher = more cleavage; in vitro, sequencing; the parent is a self-cleaving ribozyme

| Variant | self-cleavage |
| --- | --- |
| A13U A22U U108C U124C | 0.02 |
| U12A A54G U131C | 1.07 |
| A13U A30G A126G | 0.74 |
| A13U U39C A56G A117G | 0.23 |
| A11U A55G A92G | 1.82 |
| U12C U43G A126G | 1.81 |
| A13G G15C U43A A68G A82U | 0.22 |
| U12C U87G A111G | 0.04 |
| U12C A24G A64G U103C U130C U132C | 0.37 |
| A11U A51G A59U | 1.35 |
| A11U A96G A114U A116G | 0 |
| A11U C32U A89U U102C | 1.86 |
| A13U A54G A64G G79U A82G | 0.18 |
| U12C G58U U108A | 0.02 |
| A13G A51G A86G G99A | 0.16 |
| U12A A47G A89G | 0.97 |
| U12C U49C A54G A63G U131C | 0.81 |
| G14A A62G A114U A116G A118G | 0.01 |
| A13U A36G A47G G74A | 0.31 |
| U12C A23G G29A A55G C76U | 0.04 |
| U12G A63G U127C | 0.51 |
| U12C A55G A67G | 1.04 |
| A11U A51G U100C U108C U130C | 0 |
| A13G A69G A94G | 0.59 |

| Variant | self-cleavage |
| --- | --- |
| A13U U19C U103C | 0.98 |
| U12A A68G C88U U100C A114G | 0.79 |
| A13U A56G A91G U133C | 0.61 |
| U12A U37C U131C | 1.18 |
| A13G A30G U122C | 0.8 |
| A13U A66G G79A A95G A126G | 0.03 |
| U12C A63G A67G U103C U122C | 0.22 |
| A13U A89G A92G A98U A111G | 0.04 |
| U12C A30G A90G A116G U139C | 0.56 |
| A13U A52G A78U A117G | 0.39 |
| U12A U97A A135G | 1.63 |
| U12C A23G A59G | 0.56 |
| A13G A33G A96G | 0.84 |
| A13U A68G A82U | 0.22 |
| A11U A18G A52U A90C A91G A114G | 0.52 |
| A13G A22G A51G U70C | 0.79 |
| A13G A22G U43C | 1.34 |
| U12C U37C U124C | 1.37 |
| U12C A78G A92G | 0.18 |
| A13G A69U A78U A118G | 0.24 |
| U12C A24G U37C | 0.82 |
| U12A G14A A30G A82G U132C | 0.19 |
| U12A U49A A59U G74A U100C | 0.44 |
| A11U A117G U131C | 1.65 |

| Variant | self-cleavage |
| --- | --- |
| A13G A47U A92G A94G | 0.8 |
| A13G A60G G84A | 1.07 |
| U12C A22G A24G G29A A51G A59G A110U | 1.09 |
| U12A U57A A82U | 0.32 |
| U12C A24G A110U | 1.87 |
| U12A A24G A52G | 1.16 |
| A11U A116G A118U | 0.08 |
| A11U A33G A67G U87C A91G | 0.77 |
| U12C C16G A140G | 0.29 |
| A13U A60G U122C U132C | 0.32 |
| A11U A23G A51G A66G | 0.89 |
| U12A U19C A54G A55U U87C | 0.37 |
| A13G A30G U139A | 0.96 |
| U12C U57C A78U A86G A98U | 0.28 |
| U12C A63G A96G | 1.56 |
| U12C A78U A94G U130C | 0.09 |
| A13G U39A U49C A98U | 1.22 |
| U12C A23G A67G A78U | 0.35 |
| U12C A68G A82G | 0.45 |
| U12C A66G A95G U100G | 1.17 |
| A13G U38C A52G A92G | 1.02 |
| A13G A23G A51G A117G A118G A129G | 1.13 |
| A13C A82G A89U A114U A117G G137A | 0.1 |
| U12C U49C U72C A92G A125G | 0.01 |

| Variant | self-cleavage |
| --- | --- |
| A13C U87C U108C U139C | 0.02 |
| A13U A69G A116G | 0.67 |
| G14A A68G U108C | 0.01 |
| U12A G44U A118U | 1.21 |
| A13U A90G U130C | 0.27 |
| A13G A18G A30G A56G U87C A94G | 0.58 |
| U12A U39C A60C U127C | 0.29 |
| A13G C34U A54G U103A | 0.85 |
| A11U A94G U97C U120C | 0.27 |
| U12A A59G U70C A90G | 0.17 |
| A11U U87A U127C | 1.86 |
| A13G A94U A96U | 0.36 |
| U12C A23G A33U A117G | 1.63 |
| A11U U127C U131C | 1.33 |
| G14A A52G A55G A66G | 0.61 |
| A13G C61U U72G | 0.18 |
| U12G A98G U100C | 1.15 |
| A13G A59G G138A | 1.16 |
| U12A A91G U133A | 1.39 |
| G14A A63G A94G | 1.23 |
| G14A A47U U127A | 0.33 |
| A11U G58U A94G | 1.12 |
| A11U U12C A22G | 0.74 |
| G14A A24G A30G A56G U131C | 1.74 |

| Variant | self-cleavage |
| --- | --- |
| A13G A22U A114U | 0.33 |
| A11U A27G U130C U132C | 0.92 |
| A13G A23G A30G A47U | 0.96 |
| A11U U38C A56G | 1.18 |
| A13G U26C A60G A89C U108C A117U | 0.01 |
| U12C A62U U70C | 0.82 |
| U12C G29A U130C | 1.18 |
| A13U U37C U49C A66C U97A A118U U124A | 0.41 |
| A13G G73A A110G | 0.13 |
| A11U A86G G93A U122C | 0.76 |
| A13G A24G U103C U120A G137A | 1.01 |
| U12C A67G U108C | 0.03 |
| U12C A114G A116G | 0.05 |
| U12C A69G C105U | 0.18 |
| U12A A64G A135G | 1.69 |
| A13U U72C U122C | 0.26 |
| A13U U39C A82G | 0.13 |
| A11U A52G A62G A116G | 0.81 |
| U12C A56G U139A | 1.86 |
| A11U U70A U100C U132C | 2.03 |
| A13G A78G A82U A91G | 0.1 |
| U12C A23G A98G | 0.3 |
| A11U G21A A62G U103C | 2.31 |
| A11U A36G U38C A51G | 1 |

| Variant | self-cleavage |
| --- | --- |
| U12C A30G U103C A111G | 0 |
| U12C A68G U100A | 1.51 |
| A13G U43C U49C A91G | 0.31 |
| A11U U72C U120A A125G | 0.06 |
| A11U A64G A89U A95G | 2.29 |
| U12C A59G A94U U103C | 1.14 |
| U12C A18G A91G | 1.2 |
| A13U A114G U122C | 0.13 |
| U12C A23G A24G U72C A140G | 0.37 |
| U12C A59G A126G | 1.2 |
| A11G U97C A111G | 0.06 |
| U12C U39A A94G U130C U132A | 1.95 |
| A13U A33G A94G | 2.23 |
| A13G U37C U127C | 1.02 |
| U12C A22U A59G | 0.11 |
| A13G A36U A69G | 0.78 |
| G14A A18G A82G | 0.26 |
| U12C A54G U70C U133C | 1.32 |
| A13G U39A A78U A86G A118G | 0.3 |
| A13U C25U A140G | 1.49 |
| A13G U43C A78U | 0.59 |
| A11U A23G A96G | 0.42 |
| A13U U37C U102C | 1.78 |
| A11U A30C U72C | 0.2 |

| Variant | self-cleavage |
| --- | --- |
| G14A A55G U122C A129G A135G | 0.37 |
| A13G A54G A92G A111G U127C | 0.04 |
| U12C U49C A56G G79A A96G A110G | 0.01 |
| A13G A82G U131C | 0.52 |
| A13G U37C A95G U103C | 1.15 |
| U12C A13G U130C | 1.22 |
| A13G C16U A23G U26C U38C A90G A96U A110G U133C | 0.04 |
| A13U G53U G106A | 0.02 |
| G14A A54G A67G A116G | 0.12 |
| U12C C32U G74A G136U | 0.49 |
| U12C A52G A59G A67G G119A G137C | 1.05 |
| A13U A56G G80A U131C | 0.1 |
| A13U A55G A64G | 1.56 |
| U12C A114C A116G | 0.02 |
| U12C A24G A69G U70C A91G | 0.28 |
| U12C A22G A23G A86U | 1.15 |
| A13G A54G A118G | 0.65 |
| U12A A23G A52U A64G | 1.45 |
| U12C U43C A54G G80A U132C | 0.21 |
| U12C A18G U38C U43G C71U U132G | 0.51 |
| A13U U70A A110G U122C U130C U139A | 0.06 |
| U12C A129G U131C | 0.7 |
| A13U A67G A82C | 0.05 |
